# In all, about 310,000 compounds went through this assay and about 14,000 (4.5%) showed an effect of 50% or more. Effects have a minus sign here. The list shows a part of the results.
# Biological target: human ether-à-go-go-related gene (hERG) potassium channel (human, UniProt Q12809)
# Assay: primary screen, population patch clamp on CHO cells stably expressing hERG
# 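Further: peak tail current of the secondary pulse compared with the same well before compound.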
# Sequence of human ether-à-go-go-related gene (hERG) potassium channel (Q12809 whole entry, looked up): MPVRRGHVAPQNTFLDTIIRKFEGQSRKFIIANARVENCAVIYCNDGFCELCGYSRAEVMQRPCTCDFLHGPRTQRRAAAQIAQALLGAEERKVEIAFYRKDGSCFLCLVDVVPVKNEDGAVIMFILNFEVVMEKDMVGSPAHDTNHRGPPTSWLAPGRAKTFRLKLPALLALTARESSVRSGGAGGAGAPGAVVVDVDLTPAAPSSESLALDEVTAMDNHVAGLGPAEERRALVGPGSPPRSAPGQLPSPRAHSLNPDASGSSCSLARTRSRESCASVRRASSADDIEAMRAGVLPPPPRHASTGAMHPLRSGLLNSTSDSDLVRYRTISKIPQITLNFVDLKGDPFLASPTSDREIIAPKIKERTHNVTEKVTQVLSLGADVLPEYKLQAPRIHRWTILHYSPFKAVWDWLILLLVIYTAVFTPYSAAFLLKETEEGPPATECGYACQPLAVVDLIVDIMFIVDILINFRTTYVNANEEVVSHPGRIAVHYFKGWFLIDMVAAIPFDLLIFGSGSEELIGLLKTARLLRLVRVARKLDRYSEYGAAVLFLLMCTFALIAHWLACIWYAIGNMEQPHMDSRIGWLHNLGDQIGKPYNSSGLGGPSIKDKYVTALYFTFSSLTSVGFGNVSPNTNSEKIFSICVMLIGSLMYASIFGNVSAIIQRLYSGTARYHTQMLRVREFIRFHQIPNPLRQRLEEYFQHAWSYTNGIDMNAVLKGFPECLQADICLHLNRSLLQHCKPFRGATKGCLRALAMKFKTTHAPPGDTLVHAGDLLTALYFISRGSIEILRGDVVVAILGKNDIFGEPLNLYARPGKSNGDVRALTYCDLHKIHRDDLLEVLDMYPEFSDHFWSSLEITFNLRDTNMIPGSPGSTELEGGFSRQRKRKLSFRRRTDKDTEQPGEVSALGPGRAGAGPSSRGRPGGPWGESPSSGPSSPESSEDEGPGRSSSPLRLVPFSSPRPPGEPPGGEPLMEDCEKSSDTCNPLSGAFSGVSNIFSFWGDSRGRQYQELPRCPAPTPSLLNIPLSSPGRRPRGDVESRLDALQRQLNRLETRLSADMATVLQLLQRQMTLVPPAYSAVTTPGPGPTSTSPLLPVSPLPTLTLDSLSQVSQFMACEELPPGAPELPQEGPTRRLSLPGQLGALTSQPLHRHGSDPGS
row,Compound,"hERG current change (%, negative = inhibition) at 10uM [%]"
1,Cc1nc2c(C)cccn2c1/C(O)=C1\C(=O)C(=O)N(CCN2CCOCC2)C1c1ccncc1 (centres unmarked),6.97
2,O=C(COn1nnc2ccc(Cl)cc21)NCc1ccccc1,-1.03
3,Cc1ccc(C(=O)NCC(=O)Nc2ccncc2)s1,12.6
4,O=C(NCCCN1CCOCC1)c1ccccc1NS(=O)(=O)c1cc([N+](=O)[O-])ccc1Cl,-27.3
5,Cc1ccccc1C(=O)NC1CCN(C(=O)Nc2ccccc2Cl)CC1,44.9
6,COc1ccccc1-c1nnc(-c2ccc(N3CCOCC3)cc2)o1,-35.9
7,Cc1ccccc1CN1[C@@H]2c3ccccc3C[C@@H]2OCCS1(=O)=O,-3.4
8,CC1CC(=O)N(Cc2ccccc2)c2ccccc2N1C=O (centres unmarked),-4.41
9,CN1CCc2c([nH]c3ccccc23)C1,12.5
10,CC12CN3CC(c4ccccc4)(CN(C1)C31CCCCC1)C2=O,-10.8
11,CCNC(=O)/C(C#N)=C/c1c(N2CCCCCC2)nc2c(C)cccn2c1=O,-12.2
12,Cc1ccc(CNCc2cccnc2)cc1,6.45
13,Cc1ccc(NCc2nnc(SCC(=O)Nc3ncc(C)s3)n2CC2CCCO2)c(C)c1 (centres unmarked),-12.4
14,Cc1cccc(C(=O)OCC(=O)NN2C(=O)NC3(CCCCC3)C2=O)c1,19.7
15,CCNc1nc(NCC)nc(ON=C(C)C)n1,18.1
16,O=C(O)c1ccccc1NS(=O)(=O)c1cccc2nsnc12,18.3
17,O=C(NCc1ccncc1)C(=O)NCC1OCCN1S(=O)(=O)c1ccc(Cl)cc1 (centres unmarked),4.42
18,CCCOC(=O)c1ccc(NC(=O)/C=C/c2cccs2)cc1,0.453
19,COc1ccc(C)cc1N(CC(=O)Nc1cccc(N(C)S(C)(=O)=O)c1)S(C)(=O)=O,-13.8
20,O=C(CCN1C(=O)COc2ccccc21)NCCCN1CCN(c2ccc(F)cc2)CC1,-63.7
21,CC(=O)Cc1nsc(Nc2ccc(F)cc2)n1,5.29
22,CCC(CC)C(=O)N(CCc1ccc(OC)cc1)Cc1nc2ccccc2c(=O)[nH]1,-12.5
23,COc1ccccc1NC(=O)c1cn(CCC#N)nc1-c1ccc(F)cc1,5.36

row,Compound,"hERG current change (%, negative = inhibition) at 10uM [%]"
1,Cc1ccc(-n2nc(C(=O)NCc3ccc(C)o3)c3c4ccccc4n(C)c3c2=O)cc1,-3.05
2,Cc1ccc(C2CC(c3ccc(Cl)cc3)n3nc(N)nc3N2)cc1 (centres unmarked),-10.7
3,Cl.N=c1n(CCN2CCCC2)c2ccccc2n1CC(O)c1ccco1 (centres unmarked),-34
4,Cc1ccc(C)c(S(=O)(=O)c2c(C)cc(C)nc2Cl)c1,-5.61
5,COc1ccc(/C=N/NC(=O)C2C3CCCCC32C)cc1OC (centres unmarked),7.83
6,O=C1C(C=Nc2ccccc2)=C(O)c2ccccc21,-12
7,COC(=O)c1ccc2c(=O)n(NC(C)=O)c(=S)[nH]c2c1,12.7
8,C/C(=N\NC(=O)c1nn(C)cc1Br)c1cccc(NC(=O)C2CCCC2)c1,-9.3
9,Cc1cc(C)nc(NC(=O)CSc2nccc(C)n2)n1,9.07
10,O=C(Nc1cccnc1)c1cc(-c2ccco2)on1,7.82
11,O=C1NC2(CCCCCCC2)C(=O)N1Cc1ccc(F)cc1,3.76
12,C=CCc1ccc(OCCCOc2ccc(C)c(C)c2)c(OC)c1,-29.2
13,Cc1nnsc1C(=O)NNS(=O)(=O)c1ccccc1,8.81
14,O=C(C1CCCN(Cc2ccc(F)cc2)C1)N1CCCCC1.O=C(O)C(=O)O (centres unmarked),10
15,O=C(CS(=O)(=O)Cc1ccccc1)Nc1ccc(S(=O)(=O)N2CCOCC2)cc1,-10
16,Oc1[nH]c2c(Cl)cc(Cl)cc2c1N=NC(=S)NCC1CCCO1 (centres unmarked),7.88
17,O=C(NCCc1c[nH]c2ccccc12)C(=O)Nc1ccccc1,13.7
18,Cc1ccc(-c2noc(CCC(=O)NCc3ccccc3CN3CCOCC3)n2)cc1,-36.5
19,CCN(CC)CCN(C(=O)Cn1nnc(-c2ccc(OC)c(OC)c2)n1)C(C(=O)NC1CCCC1)c1ccc(F)cc1 (centres unmarked),-35.1
20,COc1cc(NC(=S)N2CCN(c3ccccn3)CC2)c(OC)cc1Cl,2.26
21,COc1ccc(S(=O)(=O)N2CCOCC2)cc1C(=O)Nc1ccc2c(c1)OCO2,0.68
22,COc1cc(C(C#N)N2CCOCC2)ccc1O (centres unmarked),13.9
23,S=C1NCN(Cc2ccco2)CN1c1cccc2ccccc12,8.32

row,Compound,"hERG current change (%, negative = inhibition) at 10uM [%]"
1,CC(C)c1ccc(OCC(O)Cn2cnc3ccccc32)cc1 (centres unmarked),-11.3
2,Cc1ccc(S(=O)(=O)NCCC(=O)NC(C)CCc2ccccc2)cc1 (centres unmarked),-14.8
3,Cc1ccc(NC(=O)c2sc3nc(C)nc(N4CCN(c5ccccn5)CC4)c3c2C)c(C)c1,-40.1
4,CCC(=O)NC1(C(F)(F)F)C(=O)Nc2c1c(=O)[nH]c(=O)n2CC(C)C (centres unmarked),-1.31
5,CCOC(=O)C(Sc1ncc(C#N)c(N)n1)C(C)C (centres unmarked),0.0332
6,O=C1c2ccccc2S(=O)(=O)N1CC(O)Cn1c2ccccc2c2ccccc21 (centres unmarked),3.03
7,CN(C)c1ccc(/C=N/NC(=O)C(O)(c2ccccc2)c2ccccc2)o1,-12.3
8,CCOc1ccc(NC(=O)CSc2nc(N3CCOCC3)nc(N3CCOCC3)n2)cc1,4.7
9,O=C(Nc1ccc2ccccc2c1)c1cccc(F)c1,17.7
10,O=C(CSc1nc2c([nH]c3ccccc32)c(=O)n1-c1cccc(Cl)c1)N1CCOCC1,1.95
11,O=C(OCc1c(F)cccc1Cl)c1cnccn1,13.6
12,CC(=O)c1ccc(NC(=S)N2CCN(CCN3C(=O)c4cccc5cccc(c45)C3=O)CC2)cc1,26.9
13,Cc1ccc(S(=O)(=O)N2CCOCC2)cc1C(=O)N(Cc1nnc(-c2ccccc2Cl)o1)C1CC1,-33.9
14,c1ccc(CNC2=NCCC2)nc1,13.1
15,COC(=O)c1ccc(NC(=O)CSc2nnnn2C2CCCCC2)cc1,8.52
16,O=C(CNS(=O)(=O)c1ccc(Br)s1)N1CCCC1,22
17,O=S(=O)(c1cc(F)ccc1F)N1CCN(C2CCCCC2)CC1,-10.9
18,O=[N+]([O-])c1cc(S(=O)(=O)N2CCCC2)ccc1N/N=C/c1cccs1,14.4
19,Cc1onc(-c2c(F)cccc2Cl)c1C(=O)N[C@@H]1C(=O)N2C(C(=O)[O-])C(C)(C)S[C@H]12.[Na+] (some centres unmarked),-4.35
20,O=C(O)C(=O)O.c1ccc(CN2CCC(N3CCC(N4CCCCCC4)CC3)CC2)cc1,16.5
21,CCC1CSC(Nc2ccc(C(=O)/C=C/c3ccc(Oc4ccccc4)cc3)cc2)=N1 (centres unmarked),10.1
22,CC1(C)CN(c2ccc(Br)cc2Br)C1=O,7.38
23,O=C(CSc1nnnn1Cc1ccccc1)Nc1ccccc1,13.1

row,Compound,"hERG current change (%, negative = inhibition) at 10uM [%]"
1,Cc1ccc(C)c(N2CN(CCC3=CCCCC3)CNC2=S)c1,-11.6
2,Cc1c(C(=O)N2CCCC2)sc(NC(=O)c2ccccc2)c1C#N,5.25
3,C/C(COc1ccccc1)=N\NC(=O)c1nnn(-c2nonc2N)c1CSc1ccccc1,4.71
4,N#Cc1c(Nc2ccccc2)c(/C=N/N=C/c2ccccc2)c[nH]c1=O,-1.68
5,COC(=O)c1sc(N2C(=O)C(=O)/C(=C(/O)c3ccc(C)cc3)C2c2ccco2)nc1C (centres unmarked),17.3
6,COC(=O)C(NC(=O)CCc1nnc2ccc(N3CCC(C)CC3)nn12)C(C)C (centres unmarked),-3.57
7,CC1=NNC(=O)C1Oc1ccccc1 (centres unmarked),-1.86
8,O=C(Nc1ccccn1)c1ccco1,14.9
9,Oc1ccc(C=Nc2ccccc2-c2nc3ccccc3[nH]2)cc1,1.88
10,Cc1nc2c(C)cccn2c(=O)c1NC(=O)COc1ccccc1,-12.1
11,C[C@]12CCC(=O)C[C@@H]1CC[C@@H]1[C@@H]2CC[C@]2(C)C=CC[C@@H]12,5.96
12,CN1CC(=O)NC1=NC(=O)C12CC3CC(CC(C3)C1)C2,-8.73
13,COc1cc(/C=C2/SC(=S)N(CC(=O)Nc3nc4ccccc4s3)C2=O)cc(OC)c1OC,-1.98
14,O=C(C[n+]1ccc(/C=N/O)cc1)N(Cc1ccccc1)Cc1ccccc1.[Cl-],0.798
15,COc1cc(Cl)c(CN2CCC(CCC(=O)NC3CC3)CC2)cc1OC,-66.2
16,COC(=O)c1c(-c2ccccc2OC)sc2ccc(OC)cc12,13.1
17,CCc1ccc(NC(=O)C2CCCN(S(C)(=O)=O)C2)cc1 (centres unmarked),21.3
18,COc1ccccc1C(=O)NCCCNC(=O)c1cccnc1,10.8
19,Cc1ccc(S(=O)(=O)N2CCC(C)CC2)cc1C(=O)NCc1ccccn1,11.3
20,Cc1nnc(NC(=O)NCN2C(=O)C3C4C=CC(C4)C3C2=O)s1 (centres unmarked),-4.75
